Data reported in PubChem BioAssay AID489043 (National Center for Advancing Translational Sciences (NCATS), 2010).
This list was built around the results that the source calls inconclusive (neither active nor inactive); the mix of calls is not that of the screen. Potencies of inconclusive entries are doubtful fits and often do not repeat. Calls of active or inactive are those of the source. Calls follow the shape of the dose curve; as a rule, active = well fitted activation curve with a large enough effect; inconclusive = small, poorly fitted or top-dose-only effect; inactive = flat fitted curve, though single readings scatter.

Molecular target: Relaxin receptor 2 (Homo sapiens) (UniProt Q8WXD0)
Chain of UniProt Q8WXD0 (Q8WXD0 whole entry, looked up): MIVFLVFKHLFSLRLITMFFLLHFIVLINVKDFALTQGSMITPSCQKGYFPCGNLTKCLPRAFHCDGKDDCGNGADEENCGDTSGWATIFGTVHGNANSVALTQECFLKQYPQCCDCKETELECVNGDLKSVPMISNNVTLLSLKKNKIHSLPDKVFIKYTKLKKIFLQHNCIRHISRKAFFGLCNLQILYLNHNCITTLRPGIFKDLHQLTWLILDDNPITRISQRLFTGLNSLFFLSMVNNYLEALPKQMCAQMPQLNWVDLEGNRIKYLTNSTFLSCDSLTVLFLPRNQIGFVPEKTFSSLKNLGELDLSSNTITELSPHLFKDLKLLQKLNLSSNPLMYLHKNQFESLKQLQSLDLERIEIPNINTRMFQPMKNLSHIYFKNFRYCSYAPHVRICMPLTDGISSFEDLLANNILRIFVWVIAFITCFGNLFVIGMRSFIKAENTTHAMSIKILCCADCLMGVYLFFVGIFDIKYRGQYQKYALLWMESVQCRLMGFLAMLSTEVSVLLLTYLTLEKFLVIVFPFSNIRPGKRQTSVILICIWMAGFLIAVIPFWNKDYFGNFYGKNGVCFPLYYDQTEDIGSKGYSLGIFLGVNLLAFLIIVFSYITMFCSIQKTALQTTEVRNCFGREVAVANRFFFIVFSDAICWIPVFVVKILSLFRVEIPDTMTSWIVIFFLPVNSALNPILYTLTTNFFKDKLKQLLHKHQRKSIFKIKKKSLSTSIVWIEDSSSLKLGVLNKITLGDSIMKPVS
Assay: qHTS Assay for Agonists of the Relaxin Receptor RXFP1: RXFP2 Hit Validation; also: nearly all actives have a fitted effect of over 65% in size
Details: HEK293 RXFP2 cAMP TR-FRET, 30 min; series mostly up to 115 µM; activation: at the top concentration
Description: NIH Chemical Genomics Center [NCGC] NIH Molecular Libraries Probe Production Centers Network [MLPCN] MLPCN Grant: R03 MH085705-01A1 Assay Submitter (PI): Alexander Agoulnik NCGC Assay Overview: The relaxin hormone is involved in the variety of biological functions in normal tissues and diseases. The role of relaxin is well-established in female reproduction and parturition, mammary gland and endometrial development, maintenance of myometrial quiescence during pregnancy. Relaxin signaling through its G protein-coupled receptor (GPCR) RXFP1 results in ECM remodeling through regulation of collagen deposition, cell invasiveness, proliferation and overall tissue homeostasis. […] Recombinant human relaxin (rhRlx) is currently being tested in clinical trials as a protective agent in congestive heart failure, in treating severe preeclampsia, and as an anti-fibrotic agent in systemic sclerosis. Upon relaxin binding RXFP1 activation leads to the activation of adenylate cyclase (AC) via Gs. cAMP will activate PKA, which phosphorylates many signaling proteins. Thus, detection of cAMP increase is an easy and reliable indication of relaxin receptor activation. To screen for agonists of the relaxin receptor, a HEK293T cell line stably transfected with RXFP1 was used. RXFP1 activation was assayed by changes in cAMP levels as detected with a time-resolved fluorescence energy transfer (TR-FRET) cAMP detection kit. This assay measures activation of a cell expressing RXFP2, another GPCR targeted by relaxin, to determine the selectivity of compounds for RXFP1.
NCGC Assay Protocol Summary: This is a cell-based assay for cAMP second messenger response to screen for agonists of the RXFP2 receptor. The assay was conducted in the presence of a PDE4 inhibitor (Ro 20174). The cells were lysed and the cAMP levels were measured with a TR-FRET cAMP kit. Presence of cAMP in the cell lysate disrupts binding between the cryptate-labeled anti-cAMP and d2-labeled cAMP pair, leading to a decrease in the TR-FRET signal. Data were normalized to the controls for basal activity (buffer only) and 100% activity (29 nM porcine relaxin). The EC50 values were determined from concentration-response data modeled with the standard Hill equation 1536-well assay protocol for the HEK293 RXFP2 cAMP assay: (1) Add 3 ul HEK293 RXFP2 cell culture. 2000 cells/well in DMEM/F12, 10% FBS, 1x Pen/Strep (dispensed offline with MultiDrop Combi). (2) Incubate 16-24 hr at 37C, 5% CO2. (3) Add 1 ul 400uM Ro20174 in DPBS, 0.05% BSA, 0.005% Tween 20. (3) Add 23 nl compounds in DMSO solution. Final concentration was 0.5 - 58 uM. (4) Incubate 30 min at 37C, 5% CO2. (5) Add 1 ul cAMP-d2 in lysis buffer (HTRF cAMP HiRange kit, CisBio). (6) Add 1 ul anti-cAMP antibody-cryptate in lysis buffer (HTRF cAMP HiRange kit, CisBio). (7) Incubate 30 min at room temperature. […] Keywords: relaxin, RXFP1, RXFP2, G-protein coupled receptor, cAMP, agonist, high throughput screening, MLSMR, MLSCN, NIH Roadmap, qHTS and NCGC
Potency is read from the fitted curve at half-maximal effect; tags tell the direction and shape of the fitted curve.

SMILES | activation | Potency
O=C(O)CNC(=O)c1ccccc1NC(=O)c1ccco1 | inactive: 8.14% [at 125 µM] | –
Cc1ccccc1NC(=O)CNc1ccccc1C(=O)NCc1ccco1 | inactive: 2.32% [at 125 µM] | –
Cc1cccn2c(=O)c3cc(C(=O)NCc4ccc(F)cc4)c(=N)n(CC4CCCO4)c3nc12 (stereo not given) | – | inconclusive: 30.9 µM [activator, partial curve]
CCC(=O)Nc1ccc(NC(=O)CSc2nc3c(c(=O)n(C)c(=O)n3C)n2CC)cc1 | – | inconclusive: 34.6 µM [activator, partial curve]
COc1ccc(NC(=O)CCCc2nnc3n(C)c(=O)c4sccc4n23)cc1 | – | active: 34.6 µM
O=C(CCCN1C(=O)c2cccnc2C1=O)Nc1ccccc1F | – | inconclusive: 43.6 µM [activator, partial curve]
O=C(O)c1cc(-c2ccco2)nc2ccc(Br)cc12 | – | active: 17.3 µM
O=C(OCc1nc2ccsc2c(=O)[nH]1)c1cccc(S(=O)(=O)N2CCOCC2)c1 | – | active: 34.6 µM
O=S(=O)(c1cccc(-c2cn3cccnc3n2)c1)N1CCOCC1 | – | active: 34.6 µM
COc1ccccc1NC(=O)c1sc2nc3n(c(=O)c2c1C)CCC3 | – | inconclusive: 19.4 µM [activator, partial curve]
CC[n+]1ccc(/C=C/c2ccc(N(C)C)cc2)c2ccccc21 | inactive: -21.1% | –
O=[N+]([O-])c1cc2c(c(CSc3ncccn3)c1)OCOC2 | – | inconclusive: 13.8 µM [activator, partial curve]
C=C(C)C(=O)Nc1cccc(C2=NOC3(C2)C[C@@H](C(N)=O)N(C(=O)c2ccc(Cl)cc2)C3)c1 (stereo not given in full) | inactive: 3.65% | –
O=C(Nc1ccccc1C(=O)N1CCNCC1)c1ccco1 | inactive: -3.31% [at 125 µM] | –
Cc1cccc(NC(=O)c2ccccc2NC(=O)C2CCCCC2)c1C | inactive: 4.02% [at 125 µM] | –
CN(Cc1ccco1)S(=O)(=O)c1cc(F)ccc1CN1C(=O)c2cccnc2C1=O | – | inconclusive: 43.6 µM [activator, partial curve]
CCN(CC)C(=O)CSc1nnc2c3ccccc3n(C)c2n1 | – | inconclusive: 34.6 µM [activator, partial curve]
Cc1cc(CNC(=O)COc2ccc([N+](=O)[O-])cc2)c2ccccc2n1 | – | inconclusive: 38.9 µM [activator, partial curve]
O=C(Cn1cnc2c(nnn2-c2ccc(F)cc2)c1=O)NCC1CCCO1 (stereo not given) | – | active: 11 µM
O=C(O)CCNc1ccc(NCCC(=O)O)c2c1C(=O)c1ccccc1C2=O | inactive: 1.48% | –

SMILES | activation | Potency
CCCn1c(SCC(=O)Nc2ccc(NC(=O)CC)cc2)nc2c1c(=O)n(C)c(=O)n2C | – | inconclusive: 34.6 µM [activator, partial curve]
CC(NC(=O)CCCc1nnc2n(C)c(=O)c3sccc3n12)c1ccccc1 (stereo not given) | – | inconclusive: 30.9 µM [activator, partial curve]
Cn1c(=O)c2sccc2n2c(CCCC(=O)NCc3ccco3)nnc12 | – | active: 34.6 µM
O=C(CSc1ccc2nnc(-c3cccnc3)n2n1)Nc1cccc(F)c1 | – | inconclusive: 43.6 µM [activator, partial curve]
O=C(OCc1cccc([N+](=O)[O-])c1)c1cnccn1 | – | inconclusive: 38.9 µM [activator, partial curve]
CCN(CC)S(=O)(=O)c1ccc(N2CCOCC2)c(NC(=O)c2cccc(C#N)c2)c1 | – | inconclusive: 34.6 µM [activator, partial curve]
CCOC(=O)CSc1nc(=O)n2cc(C)ccc2n1 | inactive: 21.2% | –
Cn1c2c(c(=O)n3ncnc13)CCCC2 | – | inconclusive: 43.6 µM [activator, partial curve]
Nc1nnc(CC(=O)N/N=C/c2ccc(-c3ccc(Cl)cc3Cl)o2)s1 | inactive: 7.15% | –
CCOC(=O)C1CCN(C(=O)Cn2nc(C)n3cccc3c2=O)CC1 | – | inconclusive: 21.9 µM [activator, partial curve]
O=C(Nc1ccccc1C(=O)NCCN1CCOCC1)c1ccco1 | inactive: 4.33% [at 125 µM] | –
CN(C(=O)COC(=O)Cn1cnc2c1c(=O)n(C)c(=O)n2C)C1(C#N)CCCCC1 | – | inconclusive: 19.4 µM [activator, partial curve]
Cn1c(=O)c2sccc2n2c(CCCC(=O)NC3CCN(Cc4ccccc4)CC3)nnc12 | – | inconclusive: 38.9 µM [activator, partial curve]
Cc1ccc(C(=O)Nc2ccccc2C(=O)NCc2ccco2)cc1 | inactive: 0.29% [at 125 µM] | –
O=S(=O)(Nc1ccccc1C(F)(F)F)c1ccc(-c2ccccn2)s1 | – | inconclusive: 19.5 µM [activator, full curve]
O=C(Nc1ccc2c(c1)C(=O)NC2=O)c1ccc2ncsc2c1 | – | inconclusive: 17.3 µM [activator, partial curve]
CC(C(=O)OCC(=O)N(C)C1(C#N)CCCCC1)N1C(=O)c2ccccc2C1=O (stereo not given) | – | inconclusive: 15.4 µM [activator, partial curve]
CCOC(=O)CNC(=O)CSc1ccc2nnc(-c3cccnc3)n2n1 | inactive: -13.2% | –
CCN(CC)C(=O)c1cc(Cl)ccc1NC(=O)c1ccco1 | inactive: -3.03% [at 125 µM] | –
COc1ccc(CN2C(=O)c3cccnc3C2=O)cc1S(=O)(=O)NC1CCCCC1C (stereo not given) | – | active: 15.5 µM
